# In the supplement of paper PMC8728848:
# Some of the results follow.
# How the values were obtained:
# Assay in all cases: glycan array binding signal (z-score within array); higher = stronger binding
# Conditions in all cases: glycan notation: IUPAC condensed, linker removed
# [1] = molecular target: Gal(b1-4)GlcNAc(b1-3)Gal(b1-4)Glc
# Outline: (§1)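 Glycan array data were curated from 3228 arrays in the Consortium for Functional Glycomics database and kept only where the protein sequence was available. Glycan names were converted to IUPAC-condensed notation, and columns mapping to the same glycan were averaged. The binding signal is a within-array Z-score, averaged across arrays of the same protein sequence at different concentrations or buffers and across linkers. Negative Z-scores can be read as non-binding.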
# [2] = molecular target: Gal(b1-4)GlcNAc(b1-3)Gal(b1-4)GlcNAc
# Outline: as §1
# [3] = molecular target: Gal(b1-4)GlcNAc(b1-3)Gal(b1-4)GlcNAc(b1-2)Man(a1-3)[Gal(b1-4)GlcNAc(b1-3)Gal(b1-4)GlcNAc(b1-2)Man(a1-6)]Man(b1-4)GlcNAc(b1-4)GlcNAc
# Outline: as §1
# [4] = molecular target: Gal(b1-4)GlcNAc(b1-3)Gal(b1-4)GlcNAc(b1-2)Man(a1-3)[Gal(b1-4)GlcNAc(b1-3)Gal(b1-4)GlcNAc(b1-2)Man(a1-6)]Man(b1-4)GlcNAc(b1-4)[Fuc(a1-6)]GlcNAc
# Outline: as §1
# [5] = molecular target: Gal(b1-4)GlcNAc(b1-3)Gal(b1-4)GlcNAc(b1-2)[Gal(b1-4)GlcNAc(b1-3)Gal(b1-4)GlcNAc(b1-6)]Man(a1-6)[Gal(b1-4)GlcNAc(b1-3)Gal(b1-4)GlcNAc(b1-2)Man(a1-3)]Man(b1-4)GlcNAc(b1-4)GlcNAc
# Outline: as §1
# [6] = molecular target: Gal(b1-4)GlcNAc(b1-3)Gal(b1-4)GlcNAc(b1-2)[Gal(b1-4)GlcNAc(b1-3)Gal(b1-4)GlcNAc(b1-6)]Man(a1-6)[Gal(b1-4)GlcNAc(b1-3)Gal(b1-4)GlcNAc(b1-2)Man(a1-3)]Man(b1-4)GlcNAc(b1-4)[Fuc(a1-6)]GlcNAc
# Outline: as §1
# [7] = molecular target: Gal(b1-4)GlcNAc(b1-3)Gal(b1-4)GlcNAc(b1-3)Gal(b1-4)GlcNAc
# Outline: as §1
# [8] = molecular target: Gal(b1-4)GlcNAc(b1-3)Gal(b1-4)GlcNAc(b1-3)Gal(b1-4)GlcNAc(b1-2)Man(a1-3)[Gal(b1-4)GlcNAc(b1-3)Gal(b1-4)GlcNAc(b1-3)Gal(b1-4)GlcNAc(b1-2)Man(a1-6)]Man(b1-4)GlcNAc(b1-4)GlcNAc
# Outline: as §1
# [9] = molecular target: Gal(b1-4)GlcNAc(b1-3)Gal(b1-4)GlcNAc(b1-3)Gal(b1-4)GlcNAc(b1-2)Man(a1-3)[Gal(b1-4)GlcNAc(b1-3)Gal(b1-4)GlcNAc(b1-3)Gal(b1-4)GlcNAc(b1-2)Man(a1-6)]Man(b1-4)GlcNAc(b1-4)[Fuc(a1-6)]GlcNAc
# Outline: as §1
# [10] = molecular target: Gal(b1-4)GlcNAc(b1-3)Gal(b1-4)GlcNAc(b1-3)Gal(b1-4)GlcNAc(b1-2)[Gal(b1-4)GlcNAc(b1-3)Gal(b1-4)GlcNAc(b1-3)Gal(b1-4)GlcNAc(b1-6)]Man(a1-6)[Gal(b1-4)GlcNAc(b1-3)Gal(b1-4)GlcNAc(b1-3)Gal(b1-4)GlcNAc(b1-2)Man(a1-3)]Man(b1-4)GlcNAc(b1-4)[Fuc(a1-6)]GlcNAc
# Outline: as §1
# [11] = molecular target: Gal(b1-4)GlcNAc(b1-3)Gal(b1-4)GlcNAc(b1-3)Gal(b1-4)GlcNAc(b1-3)Gal(b1-4)GlcNAc(b1-2)Man(a1-3)[Gal(b1-4)GlcNAc(b1-3)Gal(b1-4)GlcNAc(b1-3)Gal(b1-4)GlcNAc(b1-3)Gal(b1-4)GlcNAc(b1-2)Man(a1-6)]Man(b1-4)GlcNAc(b1-4)GlcNAc
# Outline: as §1
# [12] = molecular target: Gal(b1-4)GlcNAc(b1-3)Gal(b1-4)GlcNAc(b1-3)Gal(b1-4)GlcNAc(b1-3)Gal(b1-4)GlcNAc(b1-2)Man(a1-3)[Gal(b1-4)GlcNAc(b1-3)Gal(b1-4)GlcNAc(b1-3)Gal(b1-4)GlcNAc(b1-3)Gal(b1-4)GlcNAc(b1-2)Man(a1-6)]Man(b1-4)GlcNAc(b1-4)[Fuc(a1-6)]GlcNAc
# Outline: as §1
# [13] = molecular target: Gal(b1-4)GlcNAc(b1-3)Gal(b1-4)GlcNAc(b1-3)Gal(b1-4)GlcNAc(b1-3)Gal(b1-4)GlcNAc(b1-2)[Gal(b1-4)GlcNAc(b1-3)Gal(b1-4)GlcNAc(b1-3)Gal(b1-4)GlcNAc(b1-3)Gal(b1-4)GlcNAc(b1-6)]Man(a1-6)[Gal(b1-4)GlcNAc(b1-3)Gal(b1-4)GlcNAc(b1-3)Gal(b1-4)GlcNAc(b1-3)Gal(b1-4)GlcNAc(b1-2)Man(a1-3)]Man(b1-4)GlcNAc(b1-4)[Fuc(a1-6)]GlcNAc
# Outline: as §1
# [14] = molecular target: Gal(b1-4)GlcNAc(b1-3)Gal(b1-4)GlcNAc(b1-3)Gal(b1-4)GlcNAc(b1-3)Gal(b1-4)GlcNAc(b1-3)Gal(b1-4)GlcNAc(b1-2)Man(a1-3)[Gal(b1-4)GlcNAc(b1-3)Gal(b1-4)GlcNAc(b1-3)Gal(b1-4)GlcNAc(b1-3)Gal(b1-4)GlcNAc(b1-3)Gal(b1-4)GlcNAc(b1-2)Man(a1-6)]Man(b1-4)GlcNAc(b1-4)GlcNAc
# Outline: as §1
# [15] = molecular target: Gal(b1-4)GlcNAc(b1-3)Gal(b1-4)GlcNAc(b1-3)Gal(b1-4)GlcNAc(b1-3)Gal(b1-4)GlcNAc(b1-3)Gal(b1-4)GlcNAc(b1-2)Man(a1-3)[Gal(b1-4)GlcNAc(b1-3)Gal(b1-4)GlcNAc(b1-3)Gal(b1-4)GlcNAc(b1-3)Gal(b1-4)GlcNAc(b1-3)Gal(b1-4)GlcNAc(b1-2)Man(a1-6)]Man(b1-4)GlcNAc(b1-4)[Fuc(a1-6)]GlcNAc
# Outline: as §1
# [16] = molecular target: Gal(b1-4)GlcNAc(b1-3)Gal(b1-4)GlcNAc(b1-3)Gal(b1-4)GlcNAc(b1-3)Gal(b1-4)GlcNAc(b1-3)Gal(b1-4)GlcNAc(b1-2)[Gal(b1-4)GlcNAc(b1-3)Gal(b1-4)GlcNAc(b1-3)Gal(b1-4)GlcNAc(b1-3)Gal(b1-4)GlcNAc(b1-3)Gal(b1-4)GlcNAc(b1-6)]Man(a1-6)[Gal(b1-4)GlcNAc(b1-3)Gal(b1-4)GlcNAc(b1-3)Gal(b1-4)GlcNAc(b1-3)Gal(b1-4)GlcNAc(b1-3)Gal(b1-4)GlcNAc(b1-2)Man(a1-3)]Man(b1-4)GlcNAc(b1-4)[Fuc(a1-6)]GlcNAc
# Outline: as §1
# [17] = molecular target: Gal(b1-4)GlcNAc(b1-3)Gal(b1-4)GlcNAc(b1-3)Gal(b1-4)GlcNAc(b1-3)Gal(b1-4)GlcNAc(b1-3)Gal(b1-4)GlcNAc(b1-3)Gal(b1-4)GlcNAc(b1-2)Man(a1-3)[Gal(b1-4)GlcNAc(b1-3)Gal(b1-4)GlcNAc(b1-3)Gal(b1-4)GlcNAc(b1-3)Gal(b1-4)GlcNAc(b1-3)Gal(b1-4)GlcNAc(b1-3)Gal(b1-4)GlcNAc(b1-2)Man(a1-6)]Man(b1-4)GlcNAc(b1-4)GlcNAc
# Outline: as §1
# [18] = molecular target: Gal(b1-4)GlcNAc(b1-3)Gal(b1-4)GlcNAc(b1-3)GalNAc
# Outline: as §1
# [19] = molecular target: Gal(b1-4)GlcNAc(b1-3)Gal(b1-4)GlcNAc(b1-3)[Gal(b1-4)GlcNAc(b1-3)Gal(b1-4)GlcNAc(b1-6)]GalNAc
# Outline: as §1
binder,measurement,setting,value
PX9961J-bvu-499-24-499 (Bacteroides vulgatus) (protein) LNTDPSTAVPSDDAIKNIDDAQVALNGIYRLASAHSYYGDNYLYYADCRGEDVQARINKGAGRRVSPYYFFDVTADDNFNITLVWNQPYKVIHQANSLIEKLDAGNAGNARPEEVARIKSEALAMRGLALFDLTRLFGMPYTLDNGASLGVPIEIQTTLEDHAPERNTVAQCYEQVLKDLNDALGGLTKEKHDAYMNYWSVKALLSRVYLYMNDNENALKCAEEVINDNGGIYRLFTHDEYPSVWGKDFNSESLFEFYFTMSEPSGGSGGEGAPMVYADNVKDWNNLILTKAYLDLLNEDPEDVRHVFPHLPENAVADTLPVAAKGQPKYLIKYPGKSGSVTDAVSTVNPQDNDLCILRLSEVYLNAAEAAFKIGNTEKALTYLNAIVTRANPAKSVTSADLSLERILKERRKELVGEGHAFFDYMRNGKSVDRSGGWHLTMPEDARVIAPSDPRVALPIPQTEIDANPNIVQNPR,glycan array binding signal (z-score),[1],0.024
same,glycan array binding signal (z-score),[2],0.003
same,glycan array binding signal (z-score),[3],0.506
same,glycan array binding signal (z-score),[4],1.59
same,glycan array binding signal (z-score),[5],0.177
same,glycan array binding signal (z-score),[6],3.83
same,glycan array binding signal (z-score),[7],-0.47
same,glycan array binding signal (z-score),[8],1.01
same,glycan array binding signal (z-score),[9],-0.049
same,glycan array binding signal (z-score),[10],0.849
same,glycan array binding signal (z-score),[11],0.075
same,glycan array binding signal (z-score),[12],-0.135
same,glycan array binding signal (z-score),[13],0.492
same,glycan array binding signal (z-score),[14],4.09
same,glycan array binding signal (z-score),[15],2.67
same,glycan array binding signal (z-score),[16],0.115
same,glycan array binding signal (z-score),[17],0.326
same,glycan array binding signal (z-score),[18],-0.457
same,glycan array binding signal (z-score),[19],-0.032
